Measurements taken from patent US20260021193A1, “IMMUNOCONJUGATES AND METHODS” (Immunome, Inc., priority 2022, published 2026).

How the values were obtained:
Hu/Cy/Rh ROR1 - His = molecular target: T1, Hu/Cy/Rh ROR1 - His (Homo sapiens, UniProt Q01973); experiment: SPR binding to Hu/Cy/Rh ROR1 - His; design: species or system Human/Cyno/Rhesus
T1 construct: His
Procedure: In these experiments 10 ug/ml of purified clonal protein of Hu/Cy/Rh ROR1-His was covalently coupled to the HC30M chip. Individual dilutions of each antibody at 10 μg/mL were injected over the chip and binding was evaluated by Carterra SPR.
(§1) An initial assessment of antibody developability was performed by AC-SINS to evaluate the potential for self-interaction (FIG. 28).

Mouse ROR1 - His = molecular target: T2, Mouse ROR1 - His (Mus musculus, UniProt Q9Z139); experiment: SPR binding to Mouse ROR1 - His
T2 construct: His
Procedure: as §1

[1] = molecular target: T3, endogenously expressed extracellular ROR-1 protein on JeKo-1 (Homo sapiens, UniProt Q01973); experiment: Cell binding saturation assay, JeKo-1 (flow cytometry); conditions: FIGS. 27A-27B
T3 construct: endogenous in cells; host or cells: JeKo-1
Procedure: Cells were washed, stained with secondary antibody and cell binding saturation was detected by flow cytometry and reported as mean fluorescent intensity (MFI).
A cell binding saturation assay was developed to evaluate how well the anti-ROR-1 antibodies developed in Example 22 bound to endogenously expressed extracellular ROR-1 protein on cell lines. […] Briefly, two ROR-1 positive cell lines, JeKo-1 and MDA-MB-468, were incubated in a titration series concentration of each antibody construct. Cells were then washed and subjected to secondary antibody staining and detection by flow cytometry. Mean fluorescence (MFI) was determined by analysis on cytometer software. […] (See FIGS. 27A-27B).

T2 sequence (Q9Z139 30-937): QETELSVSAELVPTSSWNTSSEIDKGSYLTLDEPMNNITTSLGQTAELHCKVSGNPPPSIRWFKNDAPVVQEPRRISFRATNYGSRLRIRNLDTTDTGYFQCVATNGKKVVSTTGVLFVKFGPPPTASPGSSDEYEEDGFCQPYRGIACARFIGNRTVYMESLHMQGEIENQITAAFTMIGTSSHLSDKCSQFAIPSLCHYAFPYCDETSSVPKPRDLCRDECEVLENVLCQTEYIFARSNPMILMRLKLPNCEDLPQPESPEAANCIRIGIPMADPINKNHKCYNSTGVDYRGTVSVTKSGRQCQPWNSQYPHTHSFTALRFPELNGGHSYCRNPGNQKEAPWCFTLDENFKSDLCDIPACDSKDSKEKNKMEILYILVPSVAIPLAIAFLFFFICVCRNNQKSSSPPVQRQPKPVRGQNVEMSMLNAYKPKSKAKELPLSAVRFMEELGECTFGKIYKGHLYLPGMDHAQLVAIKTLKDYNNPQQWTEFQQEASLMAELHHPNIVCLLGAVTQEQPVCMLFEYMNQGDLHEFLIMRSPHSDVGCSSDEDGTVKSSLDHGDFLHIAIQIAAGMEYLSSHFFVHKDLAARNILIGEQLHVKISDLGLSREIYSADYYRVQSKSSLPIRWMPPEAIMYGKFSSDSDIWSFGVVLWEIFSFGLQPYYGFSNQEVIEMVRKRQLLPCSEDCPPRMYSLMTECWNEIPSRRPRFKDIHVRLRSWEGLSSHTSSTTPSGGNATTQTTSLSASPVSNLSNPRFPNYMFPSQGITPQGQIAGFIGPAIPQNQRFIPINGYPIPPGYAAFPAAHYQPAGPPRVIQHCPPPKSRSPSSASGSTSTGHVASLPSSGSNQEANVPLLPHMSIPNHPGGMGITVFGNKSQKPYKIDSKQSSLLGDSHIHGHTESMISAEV

Rmax (RU) (Hu/Cy/Rh ROR1 - His): 341.6 RU | ka (Hu/Cy/Rh ROR1 - His): 270000 M⁻¹ s⁻¹ | kd (Hu/Cy/Rh ROR1 - His): 0.00295 s⁻¹ | Rmax (RU) (Mouse ROR1 - His): 73.5 RU | ka (Mouse ROR1 - His): 29200 M⁻¹ s⁻¹ | kd (Mouse ROR1 - His): 0.00132 s⁻¹ | concentration needed to achieve binding saturation compared to UC-961 [1]: improved
B1: ATX-P-885: anti-ROR-1 monoclonal antibody developed herein (antibody)
heavy: QVQLQQWGAGLLKPSETLSLTCAVYGGSFSGYYWSWIRQPPGKGLEWIGEINHSGSTNYNPSLKSRVTISVDTSKNQFSLKLSSVTAADTAVYYCAREGVYEDYWGQGTLVTVSSASTKGPSVFPLAPSSKSTSGGTAALGCLVKDYFPEPVTVSWNSGALTSGVHTFPAVLQSSGLYSLSSVVTVPSSSLGTQTYICNVNHKPSNTKVDKRV[human IgG1 Fc not shown]
light: EIVLTQSPATLSLSPGERATLSCRASQSVSNYLAWYQQKPGQAPRLLIYDAYNRATGIPARFSGSGSGTDFTLTISSLEPEDFAVYYCQQRSNWPLTFGQGTRLEIKRTVAAPSVFIFPPSDEQLKSGTASVVCLLNNFYPREAKVQWKVDNALQSGNSQESVTEQDSKDSTYSLSSTLTLSKADYEKHKVYACEVTHQGLSSPVTKSFNRGEC
cell binding saturation compared to UC-961 [1]: comparable to the cell binding saturation for UC-961
